From patent US20200239543A1 (ALX ONCOLOGY, published 2020)

Legend:
[1] = molecular target: T1, human CD47 (human, UniProt Q08722 fragment); assay: SPR; protein made in E. coli
T1 construct: extracellular domain; also called CD47 ECD

[2] = molecular target: T1, human CD47; assay: SPR, 25 C, 1:1 Langmuir fit
T1 sequence (Q08722 19-139 limits assumed): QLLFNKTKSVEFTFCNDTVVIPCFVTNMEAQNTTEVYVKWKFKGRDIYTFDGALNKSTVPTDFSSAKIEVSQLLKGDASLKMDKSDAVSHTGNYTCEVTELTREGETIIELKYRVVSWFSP

Kd [1]: 500 nM
Kd [2]: 500 nM
B1: Wild-type SIRP-α D1 domain variant 2, SEQ ID NO: 2 (receptor)
chain: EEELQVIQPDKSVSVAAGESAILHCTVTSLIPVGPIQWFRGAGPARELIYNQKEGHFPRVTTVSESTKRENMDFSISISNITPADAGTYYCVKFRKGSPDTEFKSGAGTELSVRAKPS
